Laboratory results reported in the supplement of paper PMC10338343.
± gives the standard deviation. The entries are a selection whose mix differs from that of the whole data set.

System: MIWI (PIWIL1) piRISC loaded with L1MC piRNA (30 nt)
Experiment: pre-steady-state target cleavage rate (min^-1); MIWI and MILI are mouse PIWI proteins and EfPiwi is from a freshwater sponge; tags in brackets are library labels; higher = faster piRNA-guided slicing of the target
Settings: guide: L1MC piRNA 5'p-UAACUAAAUACUAUGCAAGCUGUAGGUCCU
Outline: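 Three pooled Cleave-'n-Seq trials supplied the data, with k3 capped at 0.0001 min^-1. In each, […] transcribed, DNA-blocked target RNA library and 1 nM active affinity-purified piRISC with one synthetic guide reacted in HEPES–potassium acetate buffer at 33 °C for 0–8 or 0–960 min, with or without 500 nM GTSF1 partner protein. Uncleaved targets were sequenced and normalised to depth and to weakly complementary targets. A burst-and-steady-state fit provided the pre-steady-state cleavage rate.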

[1] = auxiliary factor: 500 nM mouse GTSF1
[2] = auxiliary factor: none (no GTSF1)
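Further: 1 nM active piRISC with 0.1 nM target library at 33 °C single turnover.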

Sequence | pre-steady-state target cleavage rate [1] | pre-steady-state target cleavage rate [2]
UCCACCAACAGCUUGCAUAGUAUUUUGUUA | 0.413 ± 0.042 | 0.0276 ± 0.0037
UCGACCUACAGCUUGCAUAGUAUUUAGUUC [g2:g28:cont:t1C] | 1.22 ± 0.045 | 0.0714 ± 0.013
UCGACCAACAGCUUGCAUACUAUUUAGUUA | 0.443 ± 0.02 | 0.0393 ± 0.0093
AGGACCUACACCUUGCAUACUAUUUAGUUA | 0.302 ± 0.029 | 0.0291 ± 0.0065
UCCUGGAACAGCUUGCAUAGUAAUUACUUA | 0.141 ± 0.025 | 0.00891 ± 0.0019
AGGACCUACAGCUUGCAUAGUAUAUAGUUA | 0.884 ± 0.066 | 0.0667 ± 0.017
UCCUGGAUCAGCUUGCAUUGUAUUUAGAAA | 0.0646 ± 0.015 | 0.00498 ± 0.0024
UCCUGGAACAGCUUGCAUAGUAAUUAGUAA | 0.309 ± 0.034 | 0.00877 ± 0.0031
UCCACCUACAGCUAGCAUAGUAUUUUGUUA | 0.648 ± 0.043 | 0.00892 ± 0.0018
UCCUGGAUGUCCUUGCAAAGUAUUUAGUUA | 0.0368 ± 0.0092 | 0.00699 ± 0.0019
